Experiment [1] has as its system hTERT RPE-1 cells. Particulars: read-out: EC50 (µM) RPE-1; 48 h incubation, doses up to 50 µM, MTS.
Experiment [2] concerns HCT-116 cells. Briefly: cells. Particulars: Homo sapiens, HCT-116, 48 h, read-out: EC50 (µM) HCT-116.
The test system of experiment [3] is U-2 OS cells. Kind of experiment: Cell viability, MTS reduction assay, U2OS. Particulars: read-out: EC50 (µM) U2OS, 48 h incubation, doses up to 50 µM. In general terms: Formazan colour is commonly taken as a measure of viable cells.
Experiment [4] addresses ABL1 (Homo sapiens, UniProt P00519). Kind of experiment: ADP-Glo kinase inhibition assay, ABL1. The settings on record: 10 µM ATP, duplicate; read-out: IC50 against ABL1. The experiment is classed as biochemical. As for the experimental part:
(§1) The inhibitions of the kinase enzymatic activities were measured in 384-well plates using the ADP-GloTM assay kit (Promega, Madison, WI, USA) according to the recommendations of the manufacturer. This luminescent ADP detection assay is described in Zegzouti et al.. The protocols used to measure the enzymatic activity of kinases analyzed in this study are described in […] et al. except for human EGFR and EphB1 (both are recombinant, expressed by baculovirus in Sf9 insect cells). […] Kinase buffer “A”: 10 mM MgCl2, 1 mM EGTA, 1 mM DTT, 25 mM Tris-HCl pH 7.5, 50 μg.mL^-1 heparin. Kinase reactions were carried out with either protein or peptide as substrate in the presence of 10 μM ATP. Peptide substrates were obtained from Proteogenix (Schiltigheim, France). The transmitted signal was measured using the Envision (PerkinElmer, Waltham, MA, USA) microplate luminometer and expressed in Relative Light Units (RLUs). To determine the half-maximal inhibitory concentration (IC50), the assays were performed in duplicate with increasing doses of the tested compounds. Kinase activities are expressed in % of maximal activity, i.e., measured without the tested compound but with a similar dose of DMSO. To validate each kinase assay, the following model inhibitors were used under the same conditions as the tested compounds: Barasertib (AZD1152-HQPA, #S1147, Selleckchem) for Aurora kinase B (AURKB); […] […]
For orientation: ADP-Glo first removes unused ATP, then detects ADP through luciferase.

The target of experiment [5] is T1, JAK3 (Homo sapiens, UniProt P52333).
T1 sequence (P52333 1-1124): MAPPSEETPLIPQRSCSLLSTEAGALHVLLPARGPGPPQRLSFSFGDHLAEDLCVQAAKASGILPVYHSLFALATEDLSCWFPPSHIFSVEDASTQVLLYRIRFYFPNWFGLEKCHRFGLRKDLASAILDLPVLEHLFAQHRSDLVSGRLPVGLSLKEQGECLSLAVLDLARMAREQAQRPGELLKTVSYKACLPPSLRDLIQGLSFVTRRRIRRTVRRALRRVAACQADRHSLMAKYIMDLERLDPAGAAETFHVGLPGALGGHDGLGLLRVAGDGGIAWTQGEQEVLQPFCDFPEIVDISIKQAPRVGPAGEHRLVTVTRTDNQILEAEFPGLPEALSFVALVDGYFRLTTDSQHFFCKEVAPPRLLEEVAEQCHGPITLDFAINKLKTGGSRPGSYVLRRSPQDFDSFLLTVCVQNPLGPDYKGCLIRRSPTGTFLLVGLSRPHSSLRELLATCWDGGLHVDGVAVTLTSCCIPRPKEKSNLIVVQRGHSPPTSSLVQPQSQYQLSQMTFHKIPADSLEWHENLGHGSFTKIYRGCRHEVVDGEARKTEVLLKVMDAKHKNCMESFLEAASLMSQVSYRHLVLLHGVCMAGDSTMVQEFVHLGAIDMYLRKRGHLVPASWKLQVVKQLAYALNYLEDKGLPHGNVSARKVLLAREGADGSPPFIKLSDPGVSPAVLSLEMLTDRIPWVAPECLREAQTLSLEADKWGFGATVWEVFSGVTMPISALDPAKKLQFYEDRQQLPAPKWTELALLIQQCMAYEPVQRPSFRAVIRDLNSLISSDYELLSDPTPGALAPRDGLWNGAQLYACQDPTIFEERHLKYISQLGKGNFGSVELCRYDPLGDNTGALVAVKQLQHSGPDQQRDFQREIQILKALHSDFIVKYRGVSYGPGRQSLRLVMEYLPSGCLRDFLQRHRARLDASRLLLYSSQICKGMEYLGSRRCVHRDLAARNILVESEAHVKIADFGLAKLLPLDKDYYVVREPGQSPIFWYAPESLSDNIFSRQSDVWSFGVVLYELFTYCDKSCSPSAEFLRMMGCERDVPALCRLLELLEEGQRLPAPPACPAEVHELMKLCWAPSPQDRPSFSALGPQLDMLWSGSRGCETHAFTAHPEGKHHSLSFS
Briefly: ADP-Glo kinase inhibition assay, JAK3. Particulars: 10 µM ATP, duplicate; read-out: IC50 against JAK3. The experiment is classed as biochemical. Here is the method: as §1

Experiment [6] relates to Listeria monocytogenes SOR 100. Briefly: Micro-broth dilution MBC/MIC, L. monocytogenes. It is filed as cell-based. The settings on record: for MIC: SOR100, bacteriostatic, micro-broth dilution. As for the experimental part: (§2) MBC/MIC values of compounds 1 to 8 were determined using micro-broth dilution methods on E. coli ATCC25922, S. enterica CIP8297, P. aeruginosa ATCC27853, S. aureus ATCC25923, E. faecalis CIPA186, B. cereus ATCC6464, L. monocytogenes SOR100, and C. albicans ATCC2092. Experiments were performed as described in CLSI standard M07-A9: methods for dilution antimicrobial susceptibility tests for bacteria that grow aerobically. Briefly, wells of a 96-well microplate containing 1.0 × 10^6 CFU/mL of each bacterial target were supplemented with a 2-fold serial dilution of each pure compound ranging from 250 μM to 0.12 μM. […] Each analysis was processed in triplicate.
(In general: Dilution methods test growth across graded concentrations, often in twofold steps.)

For experiment [7], the system named is Enterococcus faecalis CIP A 186. Briefly: Micro-broth dilution MBC/MIC, E. faecalis. It is filed as cell-based. Particulars: for MBC/MIC (µM) E. faecalis CIP A 186: CLSI micro-broth dilution, 250 to 0.12 µM; for MIC: Enterococcus faecalis. Here is the method:
as §2

For experiment [8], the system named is Bacillus cereus ATCC 6464. Briefly: Micro-broth dilution MBC/MIC, B. cereus. The experiment is classed as cell-based. The settings on record: for MBC/MIC (µM) B. cereus ATCC 6464: CLSI micro-broth dilution, 250 to 0.12 µM. As for the experimental part:
as §2

Experiment [9] has as its target T2, human EphB1 (Homo sapiens, UniProt P54762).
T2 construct: host or cells: Sf9 insect cells (baculovirus)
T2 sequence (P54762 18-984): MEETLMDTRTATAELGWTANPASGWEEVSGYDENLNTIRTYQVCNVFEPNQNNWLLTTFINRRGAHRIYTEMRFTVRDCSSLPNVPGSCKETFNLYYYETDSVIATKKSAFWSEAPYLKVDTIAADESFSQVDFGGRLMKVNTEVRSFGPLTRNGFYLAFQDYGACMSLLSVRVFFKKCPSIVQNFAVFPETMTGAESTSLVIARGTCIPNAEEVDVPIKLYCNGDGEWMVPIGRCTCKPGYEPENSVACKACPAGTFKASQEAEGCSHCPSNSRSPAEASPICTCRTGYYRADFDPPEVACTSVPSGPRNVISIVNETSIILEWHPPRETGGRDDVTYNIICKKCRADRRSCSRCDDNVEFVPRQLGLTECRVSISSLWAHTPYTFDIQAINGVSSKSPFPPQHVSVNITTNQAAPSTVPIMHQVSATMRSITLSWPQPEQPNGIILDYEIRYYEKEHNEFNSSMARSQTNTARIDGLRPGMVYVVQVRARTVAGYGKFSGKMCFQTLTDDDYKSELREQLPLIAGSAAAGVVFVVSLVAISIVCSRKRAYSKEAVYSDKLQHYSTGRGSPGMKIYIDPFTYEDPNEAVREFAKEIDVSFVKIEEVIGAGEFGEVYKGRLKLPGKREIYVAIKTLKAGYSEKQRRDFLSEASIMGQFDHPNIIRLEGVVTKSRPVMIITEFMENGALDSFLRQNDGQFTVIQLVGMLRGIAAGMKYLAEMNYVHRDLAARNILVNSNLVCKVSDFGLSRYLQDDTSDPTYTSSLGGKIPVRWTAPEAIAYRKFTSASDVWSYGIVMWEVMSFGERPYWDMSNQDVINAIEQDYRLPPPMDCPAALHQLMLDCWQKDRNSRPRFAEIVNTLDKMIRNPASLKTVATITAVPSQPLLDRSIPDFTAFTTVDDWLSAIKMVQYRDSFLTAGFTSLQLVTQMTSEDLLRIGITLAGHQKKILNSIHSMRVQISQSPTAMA
Briefly: ADP-Glo kinase inhibition assay, EphB1. The experiment is classed as biochemical. Here is the method:
as §1

For experiment [10], the system named is Staphylococcus aureus ATCC25923. Briefly: Micro-broth dilution MBC/MIC, S. aureus. It is filed as cell-based. The settings on record: up to 250 µM. As for the experimental part:
as §2

Molecules are shown by their SMILES. ≈ marks a conversion by molar mass, not a printed value. Where two headings read alike, the source gives them in different places.

Chain of ABL1 (P00519 whole entry): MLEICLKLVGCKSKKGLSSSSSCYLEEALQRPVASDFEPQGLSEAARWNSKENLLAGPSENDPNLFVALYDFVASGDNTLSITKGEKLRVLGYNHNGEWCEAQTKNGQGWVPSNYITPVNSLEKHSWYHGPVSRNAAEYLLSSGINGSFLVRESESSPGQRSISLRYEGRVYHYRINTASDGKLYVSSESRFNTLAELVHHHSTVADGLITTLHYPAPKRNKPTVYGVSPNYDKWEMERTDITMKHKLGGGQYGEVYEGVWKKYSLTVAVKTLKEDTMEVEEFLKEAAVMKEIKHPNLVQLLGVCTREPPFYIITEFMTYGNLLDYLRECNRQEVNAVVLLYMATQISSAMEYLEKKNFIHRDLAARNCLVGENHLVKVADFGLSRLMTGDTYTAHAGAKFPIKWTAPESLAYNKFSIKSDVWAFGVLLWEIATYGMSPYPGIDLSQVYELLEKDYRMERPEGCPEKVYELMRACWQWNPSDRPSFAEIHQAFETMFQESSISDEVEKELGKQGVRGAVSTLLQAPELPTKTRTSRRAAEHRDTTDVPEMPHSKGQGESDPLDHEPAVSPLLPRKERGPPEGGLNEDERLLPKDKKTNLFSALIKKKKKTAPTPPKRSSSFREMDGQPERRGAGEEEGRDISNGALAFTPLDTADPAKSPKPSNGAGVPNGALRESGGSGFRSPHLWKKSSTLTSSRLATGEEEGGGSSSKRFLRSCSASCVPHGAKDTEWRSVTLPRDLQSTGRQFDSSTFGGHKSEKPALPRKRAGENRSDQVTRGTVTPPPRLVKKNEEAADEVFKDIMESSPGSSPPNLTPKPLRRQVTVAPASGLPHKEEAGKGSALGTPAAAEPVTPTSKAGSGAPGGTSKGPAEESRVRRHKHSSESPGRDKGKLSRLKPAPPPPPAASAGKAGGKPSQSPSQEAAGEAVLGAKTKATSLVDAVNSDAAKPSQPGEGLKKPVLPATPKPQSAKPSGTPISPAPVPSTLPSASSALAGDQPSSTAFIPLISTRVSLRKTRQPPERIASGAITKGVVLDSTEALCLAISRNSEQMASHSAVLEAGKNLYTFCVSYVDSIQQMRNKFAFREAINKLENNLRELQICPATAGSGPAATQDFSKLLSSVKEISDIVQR

By EC50 is commonly meant the concentration at which the effect is half-maximal. Regarding `C[C@H](O)c1nc(=O)c2ccccc2[nH]1` [Compound 7, (−)-chrysogine], the EC50 in [1], in experiment [2] and in experiment [3] was greater than 25 µM throughout.

The IC50 is the concentration at which inhibition is half-maximal. One may read the MIC as the lowest concentration that inhibits growth of the organism. `CC1(C)C=Cc2c(ccc(C(=O)/C=C/CO)c2N)O1` [Compound 2, deacetamidofusarochrom-2′,3-diene]: the results for the IC50 in [4] and in experiment [5] were 23.8 µM and 25.5 µM, respectively. In addition, in [6], inhibition of growth (MIC) required 125 µM (≈ 32.4 µg/mL). Moreover, in experiment [7], the “MBC/MIC (µM) E. faecalis CIP A 186” value is “(−) ((−) indicates that no activity was visualized at the highest concentration (250 µM))”. Besides, the “MBC/MIC (µM) B. cereus ATCC 6464” value in experiment [8] is listed as “(−) ((−) indicates that no activity was visualized at the highest concentration (250 µM))”. Further, the EC50 in experiment [1] is 10 µM; in [2] it was 13.7 µM; in experiment [3] it was 13.2 µM.

In the case of `CC1(C)C=Cc2c(ccc(C(=O)CC(N)CO)c2N)O1` (stereo not drawn) [Compound 1, deacetylfusarochromene], the EC50 in experiment [1] was determined as 0.176 µM; in experiment [2], 0.087 µM; in experiment [3], 0.896 µM.

Regarding `CC1(C)CC(=O)c2c(ccc(C(=O)C[C@@H](N)CO)c2N)O1` [Compound 6, fusarochromanone], the EC50 stood at 0.058 µM in experiment [1], 0.17 µM in [2] and 0.232 µM in experiment [3].

Regarding `CC(=O)N[C@@H](CO)CC(=O)c1ccc2c(c1N)C(=O)CC(C)(C)O2` [Compound 3, fusarochromanone TDP-2], the EC50 in experiment [1] was 23.1 µM; in experiment [2] it was 63 µM; in experiment [3] it was 35.1 µM.

As for `CC1(C)CC(=O)c2c(ccc(C(=O)/C=C/CO)c2N)O1` [Compound 5, 2,2-dimethyl-5-amino-6-(2′E-ene-4′-hydroxylbutyryl)-4-chromone], the IC50 in experiment [5] turned out to be 25.2 µM; in experiment [9] (10 µM ATP, duplicate, read-out: IC50 against EphB1) it was 1.42 µM; in [9] (printed in the curve of Figure 4C, read-out: Hs_EphB1 IC50) it was 1.42 µM. Besides, the EC50 in experiment [1] worked out at 5.22 µM; in experiment [2], 8.04 µM; in [3] it was 7.35 µM.

For `CC[C@H]1OC(=O)[C@H](C)[C@@H](O[C@H]2C[C@@](C)(OC)[C@@H](O)[C@H](C)O2)[C@H](C)[C@@H](O[C@@H]2O[C@H](C)C[C@H](N(C)C)[C@H]2O)[C@](C)(O)C[C@@H](C)C(=O)[C@H](C)[C@@H](O)[C@]1(C)O` [Erythromycin, reference compound], the MIC in experiment [6] is 1.36 µM (≈ 0.998 µg/mL); in experiment [7] (CIPA186, bacteriostatic, micro-broth dilution, read-out: MIC Enterococcus faecalis) it was 5.44 µM (≈ 3.99 µg/mL); in [8] (Bacillus cereus, ATCC6464, micro-broth dilution) it was 5.45 µM (≈ 4 µg/mL).

With `CC(=O)N[C@@H](CO)CC(=O)c1ccc2c(c1N)C=CC(C)(C)O2` [Compound 4, fusarochromene], the MIC in [6] turned out to be 125 µM (≈ 39.8 µg/mL). In addition, in experiment [7], the “MBC/MIC (µM) E. faecalis CIP A 186” value is “(−) ((−) indicates that no activity was visualized at the highest concentration (250 µM))”. Moreover, in experiment [8], the “MBC/MIC (µM) B. cereus ATCC 6464” value is given as “(−) ((−) indicates that no activity was visualized at the highest concentration (250 µM))”. The concentration giving a half-maximal response (EC50) in experiment [1] came out at 16.7 µM; in experiment [2] it was 84.4 µM; in experiment [3], 39.8 µM.

What is called MBC is the smallest concentration meeting the test's criterion for killing. Consider `C/C=C/[C@@H]1C=C[C@@H]2C[C@H](C)CC[C@H]2[C@]1(C)/C(O)=C1\C(=O)[C@H](CO)N(C)C1=O` [Compound 8, equisetin], for which the MBC was determined as 31.2 µM (≈ 11.7 µg/mL) in experiment [6] (SOR100, read-out: MBC Listeria monocytogenes) and 7.8 µM (≈ 2.91 µg/mL) in experiment [8] (Bacillus cereus, ATCC6464, read-out: MBC Bacillus cereus). Also, in experiment [7] (CIPA186, read-out: MIC Enterococcus faecalis), the MIC was 31.2 µM (≈ 11.7 µg/mL). Also, in experiment [10], the “activity against S. aureus ATCC25923” value is “no activity”. Also, the EC50 in experiment [1], in experiment [2] and in experiment [3] was greater than 25 µM each time.
